# Reference: the supplement of paper PMC8728848
# The list shows a part of the results.
# B1: HPA (Helix pomatia), Q2F1K8 (protein)
# chain: MQAFYSGLLLLCVVAFAAAQRVQSGKIDCGNDAGWAKVPSDDPGRDNTRELAKNITFASPYCRPPVVLLSITQLDVEQSQNLRVIARLYSVSPTGFKASCYTWHNTKVYSMSISWISIENY
# Key:
# Assay in all cases: glycan array binding signal (z-score within array); higher = stronger binding
# Settings in all cases: glycan notation: IUPAC condensed, linker removed
# [1] = molecular target: Fuc(a1-2)Gal(b1-4)GlcNAc(b1-2)[Fuc(a1-2)Gal(b1-4)GlcNAc(b1-4)]Man(a1-3)[Fuc(a1-2)Gal(b1-4)GlcNAc(b1-2)Man(a1-6)]Man(b1-4)GlcNAc(b1-4)GlcNAc
# In short: (§1)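 Arrays were curated from the Consortium for Functional Glycomics database, 3228 in total, and kept only where the protein sequence was available. Binding is expressed as a within-array Z-score. This score was averaged across arrays of the same protein sequence at different concentrations or buffers and across linkers, and negative values can be read as non-binding.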
# [2] = molecular target: Fuc(a1-2)Gal(b1-4)GlcNAc(b1-3)Gal(b1-4)GlcNAc
# In short: as §1
# [3] = molecular target: Fuc(a1-2)Gal(b1-4)GlcNAc(b1-3)Gal(b1-4)GlcNAc(b1-2)Man(a1-3)[Fuc(a1-2)Gal(b1-4)GlcNAc(b1-3)Gal(b1-4)GlcNAc(b1-2)Man(a1-6)]Man(b1-4)GlcNAc(b1-4)GlcNAc
# In short: as §1
# [4] = molecular target: Fuc(a1-2)Gal(b1-4)GlcNAc(b1-3)Gal(b1-4)GlcNAc(b1-3)Gal(b1-4)GlcNAc
# In short: as §1
# [5] = molecular target: Fuc(a1-2)Gal(b1-4)GlcNAc(b1-3)GalNAc
# In short: as §1
# [6] = molecular target: Fuc(a1-2)Gal(b1-4)GlcNAc(b1-3)[Fuc(a1-2)Gal(b1-4)GlcNAc(b1-6)]GalNAc
# In short: as §1
# [7] = molecular target: Fuc(a1-2)Gal(b1-4)GlcNAc(b1-3)[Fuc(a1-3)[Gal(b1-4)]GlcNAc(b1-6)]Gal(b1-4)Glc
# In short: as §1
# [8] = molecular target: Fuc(a1-2)Gal(b1-4)GlcNAc(b1-6)GalNAc
# In short: as §1
# [9] = molecular target: Fuc(a1-2)Gal(b1-4)GlcNAc6S
# In short: as §1
# [10] = molecular target: Fuc(a1-2)Gal(b1-4)[Fuc(a1-3)]GlcNAc
# In short: as §1
# [11] = molecular target: Fuc(a1-2)Gal(b1-4)[Fuc(a1-3)]GlcNAc(b1-2)Man(a1-3)[Fuc(a1-2)Gal(b1-4)[Fuc(a1-3)]GlcNAc(b1-2)Man(a1-6)]Man(b1-4)GlcNAc(b1-4)GlcNAc
# In short: as §1
# [12] = molecular target: Fuc(a1-2)Gal(b1-4)[Fuc(a1-3)]GlcNAc(b1-2)Man(a1-3)[Fuc(a1-2)Gal(b1-4)[Fuc(a1-3)]GlcNAc(b1-2)Man(a1-6)]Man(b1-4)GlcNAc(b1-4)[Fuc(a1-6)]GlcNAc
# In short: as §1
# [13] = molecular target: Fuc(a1-2)Gal(b1-4)[Fuc(a1-3)]GlcNAc(b1-2)[Fuc(a1-2)Gal(b1-4)[Fuc(a1-3)]GlcNAc(b1-4)]Man(a1-3)[Fuc(a1-2)Gal(b1-4)[Fuc(a1-3)]GlcNAc(b1-2)Man(a1-6)]Man(b1-4)GlcNAc(b1-4)GlcNAc
# In short: as §1
# [14] = molecular target: Fuc(a1-2)Gal(b1-4)[Fuc(a1-3)]GlcNAc(b1-3)Gal(b1-4)[Fuc(a1-3)]GlcNAc
# In short: as §1
# [15] = molecular target: Fuc(a1-2)Gal(b1-4)[Fuc(a1-3)]GlcNAc(b1-3)Gal(b1-4)[Fuc(a1-3)]GlcNAc(b1-3)Gal(b1-4)[Fuc(a1-3)]GlcNAc
# In short: as §1
# [16] = molecular target: Fuc(a1-2)Gal(b1-4)[Fuc(a1-3)]GlcNAc(b1-3)GalNAc
# In short: as §1
# [17] = molecular target: Fuc(a1-2)Gal(b1-4)[Fuc(a1-3)]GlcNAc(b1-3)[Neu5Ac(a2-6)Gal(b1-4)GlcNAc(b1-6)]Gal(b1-4)Glc
# In short: as §1
# [18] = molecular target: Fuc(a1-2)Gal3S(b1-4)GlcNAc
# In short: as §1
# [19] = molecular target: Fuc(a1-2)Gal6S(b1-3)GlcNAc
# In short: as §1
# [20] = molecular target: Fuc(a1-2)Gal6S(b1-3)GlcNAc6S
# In short: as §1
# Fuc(a1-2)Gal6S(b1-4)Glc = molecular target: Fuc(a1-2)Gal6S(b1-4)Glc
# In short: as §1
# [21] = molecular target: Fuc(a1-2)Gal6S(b1-4)Glc6S
# In short: as §1
# [22] = molecular target: Fuc(a1-2)Gal6S(b1-4)GlcNAc
# In short: as §1
# Fuc(a1-2)GlcNAc = molecular target: Fuc(a1-2)GlcNAc
# In short: as §1
# Fuc(a1-2)[Gal(a1-3)]Gal = molecular target: Fuc(a1-2)[Gal(a1-3)]Gal
# In short: as §1
# [23] = molecular target: Fuc(a1-2)[Gal(a1-3)]Gal(b1-3)GalNAc
# In short: as §1
# [24] = molecular target: Fuc(a1-2)[Gal(a1-3)]Gal(b1-3)GalNAc(b1-3)Gal(a1-4)Gal(b1-4)Glc
# In short: as §1
# [25] = molecular target: Fuc(a1-2)[Gal(a1-3)]Gal(b1-3)GlcNAc
# In short: as §1
# [26] = molecular target: Fuc(a1-2)[Gal(a1-3)]Gal(b1-3)GlcNAc(b1-2)Man(a1-3)[Fuc(a1-2)[Gal(a1-3)]Gal(b1-3)GlcNAc(b1-2)Man(a1-6)]Man(b1-4)GlcNAc(b1-4)GlcNAc
# In short: as §1
# [27] = molecular target: Fuc(a1-2)[Gal(a1-3)]Gal(b1-3)GlcNAc(b1-2)Man(a1-3)[Fuc(a1-2)[Gal(a1-3)]Gal(b1-3)GlcNAc(b1-2)Man(a1-6)]Man(b1-4)GlcNAc(b1-4)[Fuc(a1-6)]GlcNAc
# In short: as §1
binder,measurement,setting,value
B1,glycan array binding signal (z-score),[1],-0.075
same,glycan array binding signal (z-score),[2],-0.16
same,glycan array binding signal (z-score),[3],-0.089
same,glycan array binding signal (z-score),[4],0.219
same,glycan array binding signal (z-score),[5],-0.033
same,glycan array binding signal (z-score),[6],-0.177
same,glycan array binding signal (z-score),[7],-0.081
same,glycan array binding signal (z-score),[8],0.162
same,glycan array binding signal (z-score),[9],-0.322
same,glycan array binding signal (z-score),[10],-0.109
same,glycan array binding signal (z-score),[11],2.06
same,glycan array binding signal (z-score),[12],-0.012
same,glycan array binding signal (z-score),[13],-0.15
same,glycan array binding signal (z-score),[14],-0.006
same,glycan array binding signal (z-score),[15],0.116
same,glycan array binding signal (z-score),[16],0.708
same,glycan array binding signal (z-score),[17],-0.323
same,glycan array binding signal (z-score),[18],-0.228
same,glycan array binding signal (z-score),[19],-0.173
same,glycan array binding signal (z-score),[20],-0.277
same,glycan array binding signal (z-score),Fuc(a1-2)Gal6S(b1-4)Glc,-0.224
same,glycan array binding signal (z-score),[21],0.113
same,glycan array binding signal (z-score),[22],0.582
same,glycan array binding signal (z-score),Fuc(a1-2)GlcNAc,-0.295
same,glycan array binding signal (z-score),Fuc(a1-2)[Gal(a1-3)]Gal,-0.355
same,glycan array binding signal (z-score),[23],-0.303
same,glycan array binding signal (z-score),[24],-0.297
same,glycan array binding signal (z-score),[25],-0.103
same,glycan array binding signal (z-score),[26],-0.13
same,glycan array binding signal (z-score),[27],-0.17
